Assay results published in patent publication US20190055314A1 (ADAGENE, published 2019).

Tests used:
Hu_CRD2-CRD3-CRD4 = target: T1, Hu_CRD2-CRD3-CRD4 (human, UniProt Q07011 46-159, limits assumed); assay: flow cytometry, yeast display [Cont.]
T1 construct: also called three CRD units (CRD2-CRD3-CRD4) of human CD137

Hu_CRD1-CRD2-CRD3 = target: T2, Hu_CRD1-CRD2-CRD3 (human, UniProt Q07011 24-118, limits assumed); assay: flow cytometry, yeast display [Cont.]
T2 construct: also called three CRD units (CRD1-CRD2-CRD3) of human CD137

Hu_CRD3-CRD4 = target: T3, Hu_CRD3-CRD4 (human, UniProt Q07011 87-159, limits assumed); assay: flow cytometry, yeast display [Cont.]
T3 construct: also called two CRD units (CRD3-CRD4) of human CD137

[1] = target: T4, full-length mouse CD137 on the cell surface (mouse, UniProt P20334 24-178); assay: flow cytometry, yeast display
T4 sequence: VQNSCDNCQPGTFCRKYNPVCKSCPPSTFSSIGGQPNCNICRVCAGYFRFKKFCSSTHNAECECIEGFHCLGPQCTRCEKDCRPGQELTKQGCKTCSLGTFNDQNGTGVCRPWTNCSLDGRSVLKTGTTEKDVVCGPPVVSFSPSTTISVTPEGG

[2] = target: T5, full-length human CD137 on the cell surface (human, UniProt Q07011 18-255); assay: flow cytometry, yeast display
T5 construct: also called Human WT

Hu_CRD2 = target: T6, Hu_CRD2 (human, UniProt Q07011 46-86, limits assumed); assay: flow cytometry, yeast display
T6 construct: also called human CD137 CRD2
T6 chain: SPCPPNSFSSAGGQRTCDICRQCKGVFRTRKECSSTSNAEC

CD120a [3] = target: T7, CD120a; assay: flow cytometry, HEK293F cells expressing the receptor, antibody 100 nM [Cont.]
T7 chain: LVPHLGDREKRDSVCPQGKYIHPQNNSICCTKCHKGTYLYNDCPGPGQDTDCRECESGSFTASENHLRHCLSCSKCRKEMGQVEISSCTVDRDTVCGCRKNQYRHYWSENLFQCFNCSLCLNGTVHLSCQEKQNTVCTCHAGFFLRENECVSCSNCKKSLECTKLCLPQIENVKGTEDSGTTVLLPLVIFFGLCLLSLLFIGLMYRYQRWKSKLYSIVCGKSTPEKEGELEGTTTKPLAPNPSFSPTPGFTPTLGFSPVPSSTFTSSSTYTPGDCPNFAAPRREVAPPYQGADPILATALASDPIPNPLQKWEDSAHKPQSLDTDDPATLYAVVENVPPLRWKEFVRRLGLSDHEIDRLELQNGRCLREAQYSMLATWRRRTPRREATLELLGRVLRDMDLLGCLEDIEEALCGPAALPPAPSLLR

CD95 [4] = target: T8, CD95; assay: as above
T8 chain: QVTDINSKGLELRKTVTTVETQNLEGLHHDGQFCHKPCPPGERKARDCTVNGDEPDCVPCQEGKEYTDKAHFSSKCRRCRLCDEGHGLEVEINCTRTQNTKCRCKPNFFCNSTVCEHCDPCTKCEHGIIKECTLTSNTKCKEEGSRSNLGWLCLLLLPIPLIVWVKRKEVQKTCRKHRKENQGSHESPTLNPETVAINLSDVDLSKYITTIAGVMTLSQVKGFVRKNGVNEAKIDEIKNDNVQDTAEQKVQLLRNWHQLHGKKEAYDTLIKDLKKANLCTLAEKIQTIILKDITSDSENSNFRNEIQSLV

Hu_R66A = target: T9, Hu_R66A (human, UniProt Q07011 18-255); assay: flow cytometry, HEK293F
Chain of Hu_R66A (Q07011 18-255 R66A): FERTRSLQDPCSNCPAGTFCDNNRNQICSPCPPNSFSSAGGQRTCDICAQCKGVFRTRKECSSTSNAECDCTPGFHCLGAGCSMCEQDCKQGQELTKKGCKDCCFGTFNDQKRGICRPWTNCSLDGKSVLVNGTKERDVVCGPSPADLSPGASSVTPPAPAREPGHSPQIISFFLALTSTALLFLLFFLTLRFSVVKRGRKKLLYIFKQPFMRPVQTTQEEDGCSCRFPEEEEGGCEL
T9 construct: On HEK293F; also called human CD137 R66A

Hu_F92A = target: T10, Hu_F92A (human, UniProt Q07011 18-255); assay: flow cytometry, HEK293F
Chain of Hu_F92A (Q07011 18-255 F92A): as the sequence (Q07011 18-255 R66A) above, with A49R, F75A counted along it
T10 construct: On HEK293F; also called human CD137 F92A

Hu_N83A = target: T11, Hu_N83A (human, UniProt Q07011 18-255); assay: flow cytometry, HEK293F
Chain of Hu_N83A (Q07011 18-255 N83A): as the sequence (Q07011 18-255 R66A) above, with A49R, N66A counted along it
T11 construct: On HEK293F; also called human CD137 N83A

Hu_F36A = target: T12, Hu_F36A (human, UniProt Q07011 18-255); assay: flow cytometry, HEK293F
Chain of Hu_F36A (Q07011 18-255 F36A): as the sequence (Q07011 18-255 R66A) above, with F19A, A49R counted along it
T12 construct: On HEK293F; also called human CD137 F36A

Hu_T35A = target: T13, Hu_T35A (human, UniProt Q07011 18-255); assay: flow cytometry, HEK293F
Chain of Hu_T35A (Q07011 18-255 T35A): as the sequence (Q07011 18-255 R66A) above, with T18A, A49R counted along it
T13 construct: On HEK293F; also called human CD137 T35A

Hu_F72A = target: T14, Hu_F72A (human, UniProt Q07011 18-255); assay: flow cytometry, HEK293F
Chain of Hu_F72A (Q07011 18-255 F72A): as the sequence (Q07011 18-255 R66A) above, with A49R, F55A counted along it
T14 construct: On HEK293F; also called human CD137 F72A

Hu_F53A = target: T15, Hu_F53A (human, UniProt Q07011 18-255); assay: flow cytometry, HEK293F
Chain of Hu_F53A (Q07011 18-255 F53A): as the sequence (Q07011 18-255 R66A) above, with F36A, A49R counted along it
T15 construct: On HEK293F; also called human CD137 F53A

[5] = target: T16, human CD137 fused with human FC fragment (human, UniProt Q07011 24-186, limits assumed); assay: ELISA, coated CD137-Fc
T16 construct: may be the same reagent as CD137-hisFc; also called human CD137 (FC fusion protein); not shown: human Fc fragment

[6] = target: T17, monkey CD137 fused with human FC fragment (cynomolgus monkey, UniProt Q07011 24-179 (human entry), limits assumed); assay: ELISA, coated CD137-Fc
T17 construct: also called Cyno CD137-Fc; not shown: human Fc fragment
T17 chain: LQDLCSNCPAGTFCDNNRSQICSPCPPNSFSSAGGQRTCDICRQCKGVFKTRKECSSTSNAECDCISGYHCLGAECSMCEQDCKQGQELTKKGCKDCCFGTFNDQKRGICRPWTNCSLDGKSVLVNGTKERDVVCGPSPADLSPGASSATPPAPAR

[7] = target: T18, mouse CD137 fused with human FC fragment (mouse, UniProt P20334 24-178, limits assumed); assay: ELISA, coated CD137-Fc
T18 construct: also called mouse CD137-Fc; not shown: human Fc fragment
T18 sequence: T4 sequence

[8] = target: T5, full-length human CD137 on the cell …; assay: flow cytometry, PMA/ionomycin-activated human T cells, antibody 100 nM
[9] = target: T19, human CD137-His6 (Sino Biological #10041-H08H) (human, UniProt Q07011 24-186); assay: SPR Biacore, IgG captured
T19 construct: Bought; also called human CD137 protein; not shown: His6 tag

[10] = target: T20, mouse CD137 protein (Biacore) (mouse, UniProt P20334 24-178, limits assumed); assay: SPR Biacore, IgG captured
T20 construct: Construct used as SPR analyte not described
T20 sequence: T4 sequence

[11] = target: T21, monkey CD137 protein (Biacore) (cynomolgus monkey, UniProt Q07011 24-179 (human entry), limits assumed); assay: SPR Biacore, IgG captured
T21 construct: Construct used as SPR analyte not described; also called Cyno CD137
T21 chain: T17 chain

[12] = target: T22, full-length monkey CD137 on the cell surface (cynomolgus monkey, UniProt Q07011 24-179 (human entry)); assay: flow cytometry, PMA/ionomycin-activated monkey T cells, antibody 100 nM
T22 chain: T17 chain

[13] = target: T23, purified C1q component of the human complement (human, UniProt P02745; P02746; P02747); assay: ELISA, direct binding of antibody to purified human complement C1q, A450
T23 construct: Purified from complement; also called human complement C1q component
T23 sequence (P02745 23-245, chain 1 of 3): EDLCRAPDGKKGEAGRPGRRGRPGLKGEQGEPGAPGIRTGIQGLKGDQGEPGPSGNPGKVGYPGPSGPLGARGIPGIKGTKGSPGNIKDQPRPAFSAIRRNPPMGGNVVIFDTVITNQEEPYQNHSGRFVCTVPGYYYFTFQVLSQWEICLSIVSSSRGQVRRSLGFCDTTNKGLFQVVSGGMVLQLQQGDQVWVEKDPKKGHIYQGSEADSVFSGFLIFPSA
T23 sequence (P02746 28-253, chain 2 of 3, further chain): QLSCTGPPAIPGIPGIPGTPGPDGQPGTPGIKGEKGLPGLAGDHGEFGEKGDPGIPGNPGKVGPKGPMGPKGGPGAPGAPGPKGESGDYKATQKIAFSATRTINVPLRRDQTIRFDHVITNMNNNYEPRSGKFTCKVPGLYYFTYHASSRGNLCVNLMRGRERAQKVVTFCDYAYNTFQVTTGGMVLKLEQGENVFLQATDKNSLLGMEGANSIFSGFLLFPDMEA
T23 sequence (P02747 29-245, chain 3 of 3, further chain): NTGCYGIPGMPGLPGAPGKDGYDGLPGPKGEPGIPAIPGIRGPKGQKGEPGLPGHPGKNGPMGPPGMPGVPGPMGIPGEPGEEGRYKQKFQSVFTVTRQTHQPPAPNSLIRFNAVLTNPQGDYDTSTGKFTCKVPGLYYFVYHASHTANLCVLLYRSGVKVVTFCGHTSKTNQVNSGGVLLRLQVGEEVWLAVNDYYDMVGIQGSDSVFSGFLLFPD

[14] = target: T24, rat CD137 on the cell surface (rat, UniProt Q4W8J3 24-258); assay: flow cytometry, HEK293F cells expressing CD137
T24 sequence: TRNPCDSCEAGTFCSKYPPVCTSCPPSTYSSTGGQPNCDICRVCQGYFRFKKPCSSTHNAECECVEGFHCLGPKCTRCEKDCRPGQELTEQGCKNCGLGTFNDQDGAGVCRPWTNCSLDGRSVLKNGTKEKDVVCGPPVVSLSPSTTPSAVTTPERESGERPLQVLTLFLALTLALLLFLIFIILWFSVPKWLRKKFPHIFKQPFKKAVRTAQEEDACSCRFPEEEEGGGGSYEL

Hu_CRD4 = target: T25, Hu_CRD4 (human, UniProt Q07011 119-159, limits assumed); assay: flow cytometry, yeast display [Cont.]
T25 construct: also called human CD137 CRD4
T25 chain: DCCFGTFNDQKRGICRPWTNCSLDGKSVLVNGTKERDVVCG

Hu_CRD3 = target: T26, Hu_CRD3 (human, limits assumed); assay: flow cytometry, yeast display [Cont.]
T26 construct: also called human CD137 CRD3
T26 chain: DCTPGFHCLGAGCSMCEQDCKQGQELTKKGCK

Hu_CRD2-CRD3 = target: T27, Hu_CRD2-CRD3 (human, UniProt Q07011 46-118, limits assumed); assay: flow cytometry, yeast display [Cont.]
T27 construct: also called two CRD units (CRD2-CRD3) of human CD137

Hu_CRD1-CRD2 = target: T28, Hu_CRD1-CRD2 (human, UniProt Q07011 24-86, limits assumed); assay: flow cytometry, yeast display [Cont.]
T28 construct: also called two CRD units (CRD1-CRD2) of human CD137

Hu_GQ109AA = target: T29, Hu_GQ109AA (human, UniProt Q07011 18-255); assay: flow cytometry, HEK293F
Chain of Hu_GQ109AA (Q07011 18-255 G109A/Q110A): as the sequence (Q07011 18-255 R66A) above, with A49R, G92A, Q93A counted along it
T29 construct: On HEK293F

Hu_EL111AA = target: T30, Hu_EL111AA (human, UniProt Q07011 18-255); assay: flow cytometry, HEK293F
Chain of Hu_EL111AA (Q07011 18-255 E111A/L112A): as the sequence (Q07011 18-255 R66A) above, with A49R, E94A, L95A counted along it
T30 construct: On HEK293F

Hu_TN137AA = target: T31, Hu_TN137AA (human, UniProt Q07011 18-255); assay: flow cytometry, HEK293F
Chain of Hu_TN137AA (Q07011 18-255 T137A/N138A): as the sequence (Q07011 18-255 R66A) above, with A49R, T120A, N121A counted along it
T31 construct: On HEK293F

[15] = target: T4, full-length mouse CD137 on the cell …; assay: flow cytometry, HEK293F
[16] = target: T5, full-length human CD137 on the cell …; assay: flow cytometry, HEK293F
[17] = target: T22, full-length monkey CD137 on the cell …; assay: flow cytometry, HEK293F
CD120a [18] = target: T7, CD120a; assay: flow cytometry, HEK293F cells expressing the receptor [Cont.]
CD95 [19] = target: T8, CD95; assay: as above
[20] = target: T19, human CD137-His6 (Sino Biological …); assay: SPR Biacore, IgG
[21] = target: T5, full-length human CD137 on the cell …; assay: flow cytometry ligand competition, HEK293F cells with human CD137, antibody 100 nM then 33 nM biotinylated CD137L, streptavidin-Alexa 647
[22] = target: T5, full-length human CD137 on the cell …; assay: cell-based or functional assay

% in upper right quadrant (Hu_CRD2-CRD3-CRD4): 0.75% | Mean (Hu_CRD2-CRD3-CRD4): 8000 | % in upper right quadrant (Hu_CRD1-CRD2-CRD3): 55.7% | Mean (Hu_CRD1-CRD2-CRD3): 17500 | % in upper right quadrant (Hu_CRD3-CRD4): 0.096% | Mean (Hu_CRD3-CRD4): 25400 | % in upper right quadrant [1]: 35.2% | Mean [1]: 7160 | % in upper right quadrant [2]: 32.1% | Mean [2]: 64000 | % in upper right quadrant (Hu_CRD2): 0.21% | Mean (Hu_CRD2): 14400 | Mean (CD120a [3]): 8290 | Mean (CD95 [4]): 13100 | binding result (Hu_R66A): no binding | binding result (Hu_F92A): no binding | binding result (Hu_N83A): no binding | binding result (Hu_F36A): no binding | binding result (Hu_T35A): no binding | binding result (Hu_F72A): no binding | binding result (Hu_F53A): no binding | Kd [5]: 0.2 nM | Kd [6]: 0.3 nM | Kd [7]: 23.9 nM | % of cells positive for antibody binding [8]: 52.4% | Kd [9]: 3.7 nM | Kd [10]: 64.5 nM | Kd [11]: 12.5 nM | % of cells positive for antibody binding [12]: 18.1% | EC50 (read off the curve) [14]: ~60 nM | % in upper right quadrant (Hu_CRD4): 0.14% | Mean (Hu_CRD4): 5210 | % in upper right quadrant (Hu_CRD3): 0.087% | Mean (Hu_CRD3): 13300 | % in upper right quadrant (Hu_CRD2-CRD3): 0.048% | Mean (Hu_CRD2-CRD3): 4020 | % in upper right quadrant (Hu_CRD1-CRD2): 0.2% | Mean (Hu_CRD1-CRD2): 5740 | binding result (Hu_GQ109AA): binds | binding result (Hu_EL111AA): binds | binding result (Hu_TN137AA): binds | Kd [15]: 49.4 nM | Kd [16]: 1.3 nM | Kd [17]: 1.2 nM | Kd [20]: 3.7 nM | koff [20]: 0.0019 s⁻¹ | kon [20]: 510000 M⁻¹ s⁻¹ | % in upper right quadrant (CD137L signal) [21]: 29.1% | Median (APC signal of bound biotinylated CD137L) [21]: 17700 | NFκB reporter: EC50 (nM) With Cross-Linker [22]: 1.67 nM
B1: AG10131 (antibody, human IgG4 S228P, kappa)
heavy: EVQLVESGGGLVQPGGSLRLSCAASGFSLSTGGVGVGWIRQAPGKGLEWLALIDWADDKYYSPSLKSRLTISRDNSKNTLYLQLNSLRAEDTAVYYCARGGSDTVIGDWFAYWGQGTLVTVSSASTKGPSVFPLAPCSRSTSESTAALGCLVKDYFPEPVTVSWNSGALTSGVHTFPAVLQSSGLYSLSSVVTVPSSSLGTKTYTCNVDHKPSNTKVDKRV[human IgG4 Fc with S228P (EU numbers) skipped]
light: DIQLTQSPSSLSASVGDRVTITCRASQSIGSYLAWYQQKPGKAPKLLIYDASNLETGVPSRFSGSGSGTDFTLTISSLQPEDFATYYCQQGYYLWTFGQGTKVEIKRTVAAPSVFIFPPSDEQLKSGTASVVCLLNNFYPREAKVQWKVDNALQSGNSQESVTEQDSKDSTYSLSSTLTLSKADYEKHKVYACEVTHQGLSSPVTKSFNRGEC
notes: also called AG10131-IgG4
binding result [13]: no binding (tested: Log(Ab) 1.3 [nM], about 20 nM) | binding result (CD120a [18]): no binding (tested: 100 nM (text paragraph 226)) | binding result (CD95 [19]): no binding (tested: 100 nM (text paragraph 226))
